Measured values taken from the supplement of paper PMC11417369.
The other results are listed elsewhere or left out.

system: PfSIP2 AP2 domain 1 (GST-tagged); assay: gcPBM binding intensity (ln(normalized median fluorescence intensity)); higher = stronger DNA binding
Method in brief: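 Probes on an Agilent 4 × 180k array were primer-extended, double-stranded and 36 bp long, taken from intergenic genomic regions, with negative controls added. GST-tagged P. falciparum DNA-binding domains from E. coli, about 25 μg on average, were applied to the array for 1 h in 1× PBS containing 1% milk, 0.2 mg/ml BSA, 0.5% salmon testes DNA and 0.03% Triton X-100. Binding intensity, obtained after Alexa488 anti-GST antibody detection and a 488 nm scan, is the highest Masliner-normalised natural-log median intensity across replicate spots of either probe orientation.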

Going from “GTATATATATAAGAAGAAATATATAAATAAAATATA [CACACA_negctrl_site503]” to “AAGATATGAACATTTTGTACTTAAAAATTCAATATT [XGTACX_site7103]”, the “gcPBM binding intensity (ln)” value falls from 6.96 to 6.87.

Compared with “CACAGACACGGACACACACACATATATAATATATAT [CACACA_site4495]”, “GATTATACAAAATATACACACGTGTACAGAAATATT [CACACA_site8305]” is lower in “gcPBM binding intensity (ln)” value: 7.3 for the first, 7.09 for the second.

Compared with “ATATATTTATTTATATGTACATATTATATATTATAG [XGTACX_site3371]”, “TTATATTAATTTTGTTGTACTATTTGTGCATTAAAT [XGTACX_site4790]” is higher in “gcPBM binding intensity (ln)” value: 7.07 for the first, 7.42 for the second.

“TTTATATAAAATTATTGTACAGTTTTAATATTTTAA [XGTACX_site6807]” and “AAGGATAATATATTAGAACACACATATATATGTAAA [CACACA_site7942]” are the same in “gcPBM binding intensity (ln)” value: 6.98 for the first, 6.98 for the second.

Compared with “TACATACACAAATACACACACAAATACATACACAAA [CACACA_site704]”, “TAAACAAATAAATATTGTACATTTTTTCCTTTTAAT [XGTACX_site5594]” is lower in “gcPBM binding intensity (ln)” value: 7.18 for the first, 6.67 for the second.

First: AAAAAATAAAACATATATAATATATAATATATATAT [GTGCAC_negctrl_site447]
Second: AATGTGAAAACGTGTACACATTTTATTTAATTTATC [CACACA_site5966]
The “gcPBM binding intensity (ln)” value of the first is higher: 8.32 for the first, 6.83 for the second.

Compared with “ATAAATTATATTATTGAACACACGTTTGGTAATGTT [CACACA_site2662]”, “AAAAAAATAATAAAAAGTACAAAATGTAGAAAATGT [XGTACX_site5018]” is higher in “gcPBM binding intensity (ln)” value: 6.9 for the first, 7.45 for the second.

Compared with “TTTATTAATTTATAGTGTACATATTAATAATATATT [XGTACX_site7949]”, “ATATATATTATATATTGTACATATTATATTCATTAT [XGTACX_site1766]” is higher in “gcPBM binding intensity (ln)” value: 7.11 for the first, 7.3 for the second.

Compared with “CCTAGAAAAAAGAACTGTACATATATATATAAATAT [XGTACX_site1680]”, “ATAAATAAAAATAGAACACACATATGTTTTTTTTTT [CACACA_site3556]” is higher in “gcPBM binding intensity (ln)” value: 6.87 for the first, 6.91 for the second.

First: TTAATTGAAACTTATTGTACTTTTTTTTTTTTTTTT [XGTACX_site8162]
Second: ATATGCAGAGACTGTTTGCACTTTTTTATTTTATGT [GTGCAC_site9695]
The “gcPBM binding intensity (ln)” value of the first is lower: 7.6 for the first, 8.52 for the second.

Compared with “TGAAAAAATATAATTTGTACATATCAGGCAAAAATG [XGTACX_site1824]”, “AGGACAAGGGTTACATGTACATATATATATATATAT [XGTACX_site901]” is higher in “gcPBM binding intensity (ln)” value: 7.02 for the first, 9.4 for the second.

Compared with “AAGTTATTTATATATACACACAAATATAAATAATAT [CACACA_site1228]”, “CTCAAATTTATTAGTGGTACATAACCAAGGAAATAA [XGTACX_site225]” is lower in “gcPBM binding intensity (ln)” value: 7.07 for the first, 6.97 for the second.

First: ATTATAATTACTCTAGTGCATTATAAATATGAATAA
Second: TTTATGTAGGAACTAACACACATTGTAAGATTCAGA [CACACA_site1998]
The “gcPBM binding intensity (ln)” value of the first is higher: 7.69 for the first, 6.74 for the second.

Compared with “GGAACTTTTGGAGGTGCATGCGGAGCAATCTTTTCA [TGCATGCA_site454]”, “TTATTAATTTATAAATGTACGAATTTTTTATTTAAC [XGTACX_site7605]” is lower in “gcPBM binding intensity (ln)” value: 10.6 for the first, 7.04 for the second.

First: CATATCAATAATATCACACATATATGTGATTTTATT [CACACA_site5053]
Second: CCCCTTAATTAAAGGAGTACTATTTGTGAATAATAT [XGTACX_site4715]
The “gcPBM binding intensity (ln)” value of the first is lower: 6.93 for the first, 7.47 for the second.

Compared with “TATTAATAATTAAGTTGTACATTAATTAATATACTG [XGTACX_site6994]”, “TTTAATATTAATAATTGTACATTTTCATAAATACGC [XGTACX_site2837]” is higher in “gcPBM binding intensity (ln)” value: 6.82 for the first, 7.11 for the second.

Compared with “TTTAAACCTTAATATTGTACGCAAAAAAAAAAAGAA [XGTACX_site3757]”, “AAAATATAAATTCATGTGCACATATATATTTTGTTA [GTGCAC_site9782]” is higher in “gcPBM binding intensity (ln)” value: 7.15 for the first, 8.24 for the second.

Going from “AGGAAAAAATCGAGTAGTACACATTTAGAAATATAA [XGTACX_site8019]” to “ATATCACATATATATATATATATATATATATATATA [XGTACX_negctrl_site463]”, the “gcPBM binding intensity (ln)” value rises from 7.06 to 9.31.

Going from “AACAAGGCCCGGTACTGTACATTTTTTCATAACATT [XGTACX_site6134]” to “TATATACATATATACACACACATATATTATATATAT [CACACA_site275]”, the “gcPBM binding intensity (ln)” value rises from 7.01 to 7.62.

Going from “GTATGTATATTTATCTGTACATATTTATGTATTCTT [XGTACX_site2112]” to “TATAAATATAAAAGGAGTACAAATATATATATATAT [XGTACX_site1386]”, the “gcPBM binding intensity (ln)” value rises from 6.9 to 9.22.

First: AGTTATAATAAAAAATGTACGTATTATCATTAAGAA [XGTACX_site4244]
Second: TTTTTTTTTATAGCTAAACACACATAAGAATATATG [CACACA_site8282]
The “gcPBM binding intensity (ln)” value of the first is higher: 7.14 for the first, 6.87 for the second.

Going from “TCCTAATATATGTATGCACACACAATATATACATAT [CACACA_site9111]” to “GAAAATAAAAAATATGAACACACATATATAACAAAA [CACACA_site7975]”, the “gcPBM binding intensity (ln)” value falls from 7.36 to 6.89.

Going from “AAAAAAATTAAACATACACACGTTACTATTTTTATA [CACACA_site5009]” to “AAAATTGATATATGCACACATATATATATTAAATAT [CACACA_site763]”, the “gcPBM binding intensity (ln)” value rises from 6.89 to 7.26.

Going from “TTTCATTCTGGTATCACACATTTATTTTCTAGTTTA [CACACA_site4286]” to “AAAAAAAAAAAAAACACACATACACATATATTTTTA [CACACA_site3893]”, the “gcPBM binding intensity (ln)” value rises from 7.06 to 7.25.

Compared with “TTGCATCTACATTTATGTACATATCTTATGATAAAT [XGTACX_site2146]”, “ACAATAATTTCCATCACACATATATTTATATATTAC [CACACA_site6003]” is higher in “gcPBM binding intensity (ln)” value: 7.03 for the first, 7.19 for the second.

Going from “ATACATATTCTTATTTGTACTTATTATAAAATGGTC [XGTACX_site6584]” to “TAACTGATATATAAAACACACATCATAAAAATATAA [CACACA_site6499]”, the “gcPBM binding intensity (ln)” value falls from 7.22 to 6.87.

Compared with “TTGAACCTGATAAATACACACAATATAGATTTTTTT [CACACA_site7091]”, “TCAAAATGTTACAAATTATGTTGGCTAAAATTTTAA [TGCATGCA_negctrl_site188]” is lower in “gcPBM binding intensity (ln)” value: 6.88 for the first, 6.83 for the second.

Compared with “AATTATACTCACGTTACACACACACTATATATATAT [CACACA_site9375]”, “TATAATATAATATTTTGTACATATGATAAAAAAAAA [XGTACX_site6858]” is lower in “gcPBM binding intensity (ln)” value: 9.19 for the first, 7.09 for the second.

Compared with “ACACATATAAATAAAACATGCATATGTAAATATATA [TGCATGCA_site403]”, “AGATATATTTTTTAAATTTAAAAATTATAAAATTTA [CACACA_negctrl_site533]” is lower in “gcPBM binding intensity (ln)” value: 6.95 for the first, 6.8 for the second.

First: AAATATATCTTCTTTGCACACTTAAAGGGAAGTGAT [CACACA_site343]
Second: GCATATAAAATAAATCGTACATGTAAAACATAATTA [XGTACX_site7077]
The “gcPBM binding intensity (ln)” value of the first is lower: 7.08 for the first, 7.15 for the second.

First: GATAGAAAAAAATAATGTACACACACATATATGTTT [XGTACX_site392]
Second: GGCAGCAATTTAGTTACACACATATATAGGTATACA [CACACA_site76]
The “gcPBM binding intensity (ln)” value of the first is lower: 6.87 for the first, 7.23 for the second.

First: TTTCTTTTTTCTGTTATTATTATAAAACGATATTTA [TGCATGCA_negctrl_site167]
Second: TACACATACCCATACACACGCATAGAAACATACGAA [CACACA_site5212]
The “gcPBM binding intensity (ln)” value of the first is lower: 6.99 for the first, 7.29 for the second.

Going from “TATTTTTATTTTAATTGTACTTTTTAATTAATAATA [XGTACX_site8302]” to “TTTTTTTTTTTTATATGTACTAATAATCTTTTTTTT [XGTACX_site3552]”, the “gcPBM binding intensity (ln)” value falls from 7.27 to 6.96.

Going from “AATATTTTATATGTAGTGCATTACTATAGGATTTAT [GTGCAC_site9424]” to “GCTGAAAGGATAAAGGTGCATATTTTTTAAAAAATT [GTGCAC_site9487]”, the “gcPBM binding intensity (ln)” value rises from 9.45 to 11.2.

First: TGTGTCAAATAATTAATGTCATATATATTTTGTATA [CACACA_negctrl_site1479]
Second: TGCTTATATCTTATAATATTTATACATCATAATAAG [CACACA_negctrl_site629]
The “gcPBM binding intensity (ln)” value of the first is lower: 6.95 for the first, 7.03 for the second.

Going from “ACAAAATAAACGGCTGCACACAAGAAGCACAATATT [CACACA_site3690]” to “AATATATGGTTTCATGATATTAAATACAATTTAATG [CACACA_negctrl_site1503]”, the “gcPBM binding intensity (ln)” value falls from 7.26 to 6.75.

Compared with “ATATATATATGTATATGTACTTATATTATTGTTTGT [XGTACX_site1466]”, “CTATAATTATGATGAAGTACATATGAGTTCAAAAAA [XGTACX_site3070]” is lower in “gcPBM binding intensity (ln)” value: 8.83 for the first, 6.99 for the second.

Compared with “ACATAATGCTAGACACGTACGTACATCCGTGAGGTT [XGTACX_site4156]”, “TTATTATTATATTCTACATGCAGTTTGTGTAGAACA [TGCATGCA_site455]” is lower in “gcPBM binding intensity (ln)” value: 7.22 for the first, 6.87 for the second.

Going from “GTAAAAGAACGGCATGCATGAAAAATATTACACATG [TGCATGCA_site143]” to “TTTCAATAATAAAAAACACACACAAAAAAAAATAAT [CACACA_site8905]”, the “gcPBM binding intensity (ln)” value rises from 6.88 to 7.

Going from “AAAAATATAAACACCAGTACACAAACCTATAATGGA [XGTACX_site3846]” to “AAAGTAAATTTAAGCACACACAACGAATTTTTATAC [CACACA_site1959]”, the “gcPBM binding intensity (ln)” value rises from 6.93 to 7.22.

First: AAAATTTATAAAAGCACACAAAATAAAAAAAAATGA [CACACA_site1491]
Second: TTATAATATGTATACACACACATATATAAATATATA [CACACA_site2326]
The “gcPBM binding intensity (ln)” value of the first is higher: 7.06 for the first, 7.02 for the second.

Compared with “TTTTGTTATATACAATAGATCAGAAGAAATGAAGTT [CACACA_negctrl_site1579]”, “CAATGTTAACATATTACACACATATGTATATAGAAT [CACACA_site2732]” is lower in “gcPBM binding intensity (ln)” value: 7.14 for the first, 6.95 for the second.

Going from “CTTACGTATTAAGTGTGTCCGTAGTGTTCATAGTTC [XGTACX_site8913]” to “TATATATGTATATATTTTATAAGTATGCAAGAAAAT [TGCATGCA_negctrl_site486]”, the “gcPBM binding intensity (ln)” value rises from 6.98 to 7.94.

Going from “ATATTGGAATAAATTTGTACATATATATATTATTCA [XGTACX_site916]” to “AAAAAAAAAGAAAAATGTACATACATAAATATATAT [XGTACX_site5664]”, the “gcPBM binding intensity (ln)” value falls from 7.02 to 6.94.
